# Measured values reported in article PMC5836133.
# Some of the results follow. At the low end of the ranking the order means little.
# System: T1, GST-NbGlk1(82-244)
# T1 sequence: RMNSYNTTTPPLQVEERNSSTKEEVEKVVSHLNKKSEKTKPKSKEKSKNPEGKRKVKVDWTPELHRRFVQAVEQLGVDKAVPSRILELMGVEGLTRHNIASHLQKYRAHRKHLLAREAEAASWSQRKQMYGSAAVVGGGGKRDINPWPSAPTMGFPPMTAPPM
# Assay: protein-binding microarray;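 further: rank-based score ranging −0.5 to +0.5 with E above 0.45 taken as significant binding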
# Details: NbGlk1 is a Golden2-like transcription factor of Nicotiana benthamiana; high values mean tight binding; most listed sequences are background and not binding sites; double strand, one strand shown
row,Sequence,binding signal
1,AGGGAATC,0.477 E-score
2,AAGCCCGT,-0.203 E-score
3,ATATGTCC,-0.0314 E-score
4,ACACCTCT,-0.16 E-score
5,ATGGGCTG,-0.119 E-score
6,ACCGACAA,0.0952 E-score
7,AATCGTGC,0.299 E-score
8,ACTTCCTG,-0.00564 E-score
9,ACAGCGGC,-0.205 E-score
10,CAACGACC,-0.142 E-score
11,AGCTTCCT,-0.255 E-score
12,AAAACTAA,0.0367 E-score
13,ACAATTTA,0.158 E-score
14,AGTAGTAT,0.149 E-score
15,AACAGCGA,-0.155 E-score
16,AGGGTCCA,-0.296 E-score
17,AGTAAGCC,-0.214 E-score
18,ATGGCGCC,-0.166 E-score
19,AATCGTAT,0.339 E-score
20,AGGAACGA,-0.131 E-score
21,ACACTCCC,-0.0639 E-score
22,AAATGAGT,0.0408 E-score
23,AGTATTCA,0.0922 E-score
24,ATAGTAAG,0.0645 E-score
25,ACCTTATG,-0.0792 E-score

row,Sequence,binding signal
1,ACCAGGGC,-0.338 E-score
2,CAGCCTGA,-0.0999 E-score
3,ACCGCAAC,-0.082 E-score
4,AATTCTGG,0.129 E-score
5,AAAGCATT,-0.126 E-score
6,AGGCGTAC,-0.209 E-score
7,AGCGGTAG,-0.124 E-score
8,ACATCTAG,0.125 E-score
9,ATACGCGA,0.198 E-score
10,ACATGCGT,-0.145 E-score
11,CACTCTGG,-0.137 E-score
12,CACTTTAA,-0.0728 E-score
13,AGGCGTTA,-0.141 E-score
14,AATGGCGT,-0.0528 E-score
15,AGGTCTCC,-0.246 E-score
16,ATTGCAAA,0.212 E-score
17,ACCAGGTA,-0.149 E-score
18,AGGGTCGC,-0.357 E-score
19,AGTTAGTC,-0.149 E-score
20,CAGAACTC,-0.128 E-score
21,ACACTGGG,-0.0798 E-score
22,AAAAACCT,0.0738 E-score
23,AGTGCAGC,-0.141 E-score
24,AGGCTAAT,-0.148 E-score
25,AGGAACAA,0.0141 E-score

row,Sequence,binding signal
1,ATACTATC,0.153 E-score
2,AACGTTGC,-0.156 E-score
3,ATTTCTAC,0.285 E-score
4,ACGTGCAC,0.0107 E-score
5,AATCGGGT,0.272 E-score
6,AGGTATCC,0.181 E-score
7,CAAAGACA,0.0167 E-score
8,CACTTGTA,0.0671 E-score
9,AAATTCCA,0.0908 E-score
10,AGATCTGA,0.332 E-score
11,ATTGTGGC,0.0648 E-score
12,AATAGGCC,-0.311 E-score
13,ATAAAGCG,-0.0173 E-score
14,AGGAGCCG,-0.119 E-score
15,ATAAAACC,0.0119 E-score
16,CAACTTCG,0.0133 E-score
17,ATGACCGC,-0.117 E-score
18,ATCGAATG,-0.00155 E-score
19,CAAAACAC,0.0261 E-score
20,ATACGTGG,0.0802 E-score
21,AACTAGTC,-0.1 E-score
22,ACATACCT,0.0375 E-score
23,AACCCCTG,-0.068 E-score
24,AGTGAGTG,-0.00984 E-score
25,AAAATCCC,0.41 E-score

row,Sequence,binding signal
1,AACCACAA,-0.0453 E-score
2,ATTCGGTA,0.241 E-score
3,CACCACCA,-0.154 E-score
4,ATATTGGC,0.135 E-score
5,ACCATCTC,-0.0987 E-score
6,ATCTAGAG,0.238 E-score
7,AACTAAAC,0.019 E-score
8,ATAGGTTA,-0.0142 E-score
9,ACTCATAG,-0.0932 E-score
10,CAAGCTGC,-0.196 E-score
11,CACGTTAA,-0.0358 E-score
12,AAAGGGAA,-0.0446 E-score
13,AGCGCATA,0.0789 E-score
14,AAGGCGCC,-0.337 E-score
15,ACTTCAAT,0.128 E-score
16,AGAGCTTC,-0.249 E-score
17,ATAAGTGG,0.074 E-score
18,ACGTGCAT,-0.128 E-score
19,AACTCATG,-0.0847 E-score
20,ATCTTTTC,0.289 E-score
21,CAGAGGTA,-0.0926 E-score
22,ATGCCAAG,-0.0549 E-score
23,AGGGGACC,-0.247 E-score
24,CAACGCTA,-0.148 E-score
25,AGCAGACT,-0.175 E-score

row,Sequence,binding signal
1,ACAATTCC,0.0828 E-score
2,AATTTTTC,0.163 E-score
3,AATGGTAG,0.0132 E-score
4,ACACGTGA,-0.0423 E-score
5,AATGATCG,0.072 E-score
6,AACCCCCC,-0.345 E-score
7,CAAACGGG,-0.0201 E-score
8,AATATATC,0.311 E-score
9,AGGACGAG,-0.284 E-score
10,ACACGTCG,-0.104 E-score
11,AGATGTAA,0.0451 E-score
12,ATGGCGGG,-0.221 E-score
13,AGGGTGAC,-0.0929 E-score
14,ACGTGGAA,-0.0175 E-score
15,AAATGAGG,-0.0177 E-score
16,ACGTTGGA,-0.0911 E-score
17,ACGCTCCA,-0.177 E-score
18,ACCTTTGC,-0.111 E-score
19,AGAATGTA,0.108 E-score
20,AGTCCGCG,-0.183 E-score
21,AAACGGGT,-0.195 E-score
22,CAAACGCA,-0.0422 E-score
23,AGTGATAA,-0.0892 E-score
24,ACAGATAA,0.189 E-score
25,CAAGACGC,-0.144 E-score

row,Sequence,binding signal
1,AATGGCGG,-0.131 E-score
2,ATAGTTGA,0.0546 E-score
3,AGTTGGAA,0.0544 E-score
4,ATGGACCC,-0.252 E-score
5,AAGAGTCA,-0.0731 E-score
6,ATAGGCAA,-0.0435 E-score
7,ATACACGA,0.185 E-score
8,AGCTGGGG,-0.188 E-score
9,ATGGTCTG,-0.179 E-score
10,AAACCATT,-0.0754 E-score
11,CACGTCAC,0.0661 E-score
12,AGGGTTTC,-0.238 E-score
13,ACAAGGAT,0.227 E-score
14,ATCCGCTA,0.353 E-score
15,ATAAACTA,-0.00382 E-score
16,ATATCTCC,0.388 E-score
17,ACTTCCTA,-0.0434 E-score
18,AGTTTATG,-0.0296 E-score
19,AAGGAGCG,-0.0899 E-score
20,AAACGGTA,0.0389 E-score
21,ATGGCGTG,-0.047 E-score
22,AGACGACA,-0.154 E-score
23,AGATTTCA,0.467 E-score
24,ACAACTAT,0.0731 E-score
25,AGTTTCAG,0.0119 E-score

row,Sequence,binding signal
1,ATGTGAGG,-0.0259 E-score
2,ACAATTAT,0.106 E-score
3,AAGGGGGC,-0.198 E-score
4,ACAGTATG,-0.0588 E-score
5,AGTCTCGG,-0.235 E-score
6,ATCAGTTC,0.172 E-score
7,AGTTTTTA,0.127 E-score
8,AGCTGGTA,-0.142 E-score
9,ACTGGACG,-0.063 E-score
10,AATGACAA,0.101 E-score
11,CACTTCCG,-0.0487 E-score
12,AACTGGCT,-0.252 E-score
13,AGAGTCTC,-0.0574 E-score
14,AGTCTGTG,-0.0944 E-score
15,AGGTTGGG,-0.175 E-score
16,AGATATAT,0.316 E-score
17,AACACGTG,-0.0376 E-score
18,AGTGTTGA,0.0172 E-score
19,AACGACCT,-0.247 E-score
20,AATGGAGC,-0.11 E-score
21,ACCTACAA,-0.0976 E-score
22,AGGGAGAG,-0.217 E-score
